Some of the results follow. At the low end of the ranking, values are background and their order means little.

From paper PMC6212790 come the findings set out here.

For the experiment, the target named is T1, GST-Rok-C97-191 (UniProt O34857).
T1 sequence: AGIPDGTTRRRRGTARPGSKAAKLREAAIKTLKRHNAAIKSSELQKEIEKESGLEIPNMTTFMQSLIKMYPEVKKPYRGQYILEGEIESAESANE
Nature of the experiment: protein binding microarray.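 Further: rank score from −0.5 (least bound) to 0.5 (best bound).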 The following applies: Rok is a gene silencer of Bacillus subtilis; high values mean tight binding; most listed sequences are background and not binding sites; double strand, one strand shown.
Take ATGCGTGG: the binding signal is -0.181 E-score.

AGCGATCA came in with a binding signal of 0.0712 E-score.

For the sequence AATAGGCA, the binding signal is -0.25 E-score.

ATAGCGGG showed a binding signal of -0.0312 E-score.

With ATAGGGTG, the binding signal worked out at 0.109 E-score. Under GGCGGTAA stands 0.0703 E-score; under ATATAACG, 0.271 E-score. In the case of GCTGAGAC, the binding signal is -0.135 E-score. With GGTTGTAC, the binding signal was 0.145 E-score. As to GAGGAATA, the binding signal is 0.0153 E-score. To AGAAGGTG belongs -0.0446 E-score. Sequence ATGAAACG displayed a binding signal of -0.0262 E-score. In turn, AAGTGCAT yielded a binding signal of -0.0284 E-score. In turn, CACAGCGG returned a binding signal of 0.0839 E-score. As to CATCCTAC, the binding signal worked out at 0.18 E-score. For the sequence AACGCAGC, the binding signal was found to be 0.0817 E-score.

AATAAGAA registered a binding signal of 0.162 E-score. To GCGACCAA belongs -0.012 E-score.

As for ACGTCAAC, the binding signal was found to be 0.00643 E-score.

The sequence AGCGAACG came in with a binding signal of -0.215 E-score. Turning to GGATCCGA, the binding signal is -0.011 E-score. AAGCTGTG had a binding signal of -0.0915 E-score. AATCTGCG returned a binding signal of 0.0952 E-score. For the sequence ATTTAGGA, the binding signal is 0.0135 E-score. Consider AAGTACTA, for which the binding signal is 0.385 E-score.

For AGCGAAAT, the binding signal was 0.119 E-score.

For GTATCAAA, the binding signal turned out to be 0.0823 E-score. Under ATAGTAGA stands 0.355 E-score. As to AAGCCGCA, the binding signal was -0.221 E-score.

Regarding GACGGCCC, the binding signal is -0.0925 E-score.

In turn, CCGGTTAC displayed a binding signal of -0.037 E-score. GCAACCAC yielded a binding signal of 0.0137 E-score. As for CCCGGTGC, the binding signal is -0.331 E-score. The sequence AAAGGCGC yielded a binding signal of -0.209 E-score. In turn, AACGTAGT returned a binding signal of 0.128 E-score. Under ACGCTCTG stands -0.00695 E-score. ACGTTAGA: the binding signal came to 0.212 E-score.

In turn, TATGGTGA registered a binding signal of 0.088 E-score. Take ATCTAATA: the binding signal turned out to be 0.246 E-score. ATATGTGA yielded a binding signal of 0.289 E-score. To AGCACATA belongs 0.0492 E-score. Consider CGCGGAAC, for which the binding signal was -0.19 E-score. Turning to ACTGTCTA, the binding signal is -0.114 E-score. As to CTCACGCA, the binding signal was -0.0368 E-score. As for CGAAGACC, the binding signal was -0.129 E-score. In turn, CGAAACCC returned a binding signal of -0.146 E-score. Regarding CGCCTGGA, the binding signal was -0.192 E-score. AAGGGCTA yielded a binding signal of -0.265 E-score.

In turn, ATTGGTAG returned a binding signal of 0.38 E-score. The sequence CCCTATTA gave a binding signal of 0.0698 E-score. Consider TCAATAGA, for which the binding signal was determined as 0.117 E-score. Regarding ACGATACC, the binding signal was -0.0465 E-score.

For ACGCAGAC, the binding signal is -0.225 E-score. With AGAAAGAA, the binding signal worked out at 0.144 E-score. To CACCGCAG belongs -0.123 E-score; to ATGTAGGG, 0.0367 E-score; to TCACCTAA, -0.0128 E-score. For AAGCCATT, the binding signal is -0.0115 E-score. Sequence GCCCGAAA had a binding signal of -0.274 E-score. To CCAAAGCA belongs -0.217 E-score; to ATTAAGAC, -0.0482 E-score.

For the sequence AGGGGGAA, the binding signal was 0.00464 E-score.

ACGCGAAA gave a binding signal of -0.00202 E-score.

The sequence CCCCAGAC displayed a binding signal of -0.292 E-score. Consider CGAGCCCG, for which the binding signal was -0.123 E-score.

As for CCCTGCAG, the binding signal was -0.286 E-score. In turn, AGAGGAGC yielded a binding signal of -0.189 E-score. Consider ATGACGAA, for which the binding signal was 0.0895 E-score.

As to CCGAACAC, the binding signal was -0.241 E-score. For the sequence CCCACACC, the binding signal was -0.0912 E-score. Turning to CCTTGGCG, the binding signal is -0.177 E-score. In turn, TCCTGTAA had a binding signal of 0.0459 E-score. Take ACGCATGC: the binding signal is -0.111 E-score.

For GACCTAGA, the binding signal is 0.0233 E-score. The sequence CAATACGC had a binding signal of -0.0675 E-score. Regarding AATCAACG, the binding signal is 0.0363 E-score. For the sequence GCCATGAA, the binding signal was -0.31 E-score. To CCGAGGCA belongs -0.061 E-score; to CGTCGGTC, -0.1 E-score; to CGAACCCA, 0.00438 E-score. Under AATAAAAT stands 0.33 E-score.

Regarding GATTTTCC, the binding signal is -0.0139 E-score.

In the case of GTACTTAA, the binding signal worked out at 0.314 E-score. As to CTGCTGCA, the binding signal is -0.136 E-score. To GTTAAAAA belongs 0.158 E-score; to CAATGCGC, 0.055 E-score. Under AGCCAAAA stands -0.0673 E-score; under CTTTTACA, 0.116 E-score. With CAGTCACG, the binding signal was -0.0705 E-score.

The sequence TCAACTCA gave a binding signal of -0.00658 E-score. AAGTAGCC displayed a binding signal of 0.00315 E-score. Consider GGCATCTA, for which the binding signal turned out to be 0.084 E-score. For the sequence TACGCACA, the binding signal worked out at 0.21 E-score. AGTAACAC displayed a binding signal of 0.265 E-score.
